Measurements published in PubChem BioAssay AID463173 (ICCB-Longwood Screening Facility, Harvard Medical School, 2010).
About 1,700 (3.3%) of roughly 52,000 compounds were called active. Cut-off read from the data, not from the text of the source: active = survival mostly below about 52% (no sharp cut-off); inactive = mostly above about 56%. The list shows a part of the results.

These compounds were tested on Wild type (assay: growth inhibition of S. aureus wild type versus tarO mutant, primary screen, teichoic acid synthesis inhibitors, RN4220, OD600 (AID 463173)). Conditions: S. aureus RN4220 wild type/DeltatarO growth, OD600, 18 h, active compounds read low, screened at 18.75 µg/mL (by protocol).

| Structure (SMILES) | survival |
| --- | --- |
| CCOc1ccc(C(=O)c2cn(Cc3ccc(Cl)cc3)c3cc(OC)c(OC)cc3c2=O)cc1 | inactive: 143% |
| CCc1nc2nc(C)cc(Nc3ccc(OC)cc3OC)n2n1 | inactive: 75% |
| Cc1ccc(Nc2nnc(-c3ccc(C)c(S(=O)(=O)N4CCOCC4)c3)c3ccccc23)c(C)c1 | inactive: 148% |
| Cc1ccc2c(c1)NC(=O)C(CC(=O)Nc1ccccc1Cl)O2 (stereo not drawn) | inactive: 75% |
| Cc1oc(-c2ccc(Cl)cc2)nc1CN1CCC(C(=O)NCCCN2CCN(c3cccc(Cl)c3)CC2)CC1 | inactive: 30% |
| CC(C)CNCC(=O)N(C1CCCCC1)C1CCCCC1 | inactive: 115% |
| Cc1ccc(Cl)cc1N1CCN(C(=O)c2cc(S(=O)(=O)N3CCCC3)cn2C)CC1 | inactive: 96% |
| COC(=O)c1cc2c(ccn2-c2ccc(F)cc2)n1CC(=O)N1CC(C)CC(C)C1 (stereo not drawn) | inactive: 113% |
| COc1ccc(C(=O)NCCc2sc(-c3ccc(Cl)cc3)nc2C)c(OC)c1 | inactive: 124% |
| COc1ccc(C)cc1Nc1nc2cc(Cl)c(Cl)cc2nc1-n1nc(C)cc1C | inactive: 82% |
| C=Cc1ccc(CN2C(=O)N(c3ccc(CC)cc3)S(=O)(=O)c3ccccc32)cc1 | active: 1% |
| COc1ccc(C)cc1NC(=O)CSc1nc(=O)n(Cc2ccncc2)c2c1CCC2 | inactive: 124% |
| COc1ccc(C)cc1NC(=O)NCc1ccc2c(c1)CCN2C(=O)c1ccccc1 | inactive: 119% |
| Cc1ccc(NC(=O)Cn2c(=O)n(-c3ccccc3)c(=O)c3c4c(sc32)CCCC4)cc1 | inactive: 89% |
| O=C(Cc1ccc(Cl)cc1)n1cc(Cl)cn1 | inactive: 97% |
| COc1cc(NC(=O)CN2C(=O)COc3ccc(S(=O)(=O)N4CCCCC4)cc32)cc(OC)c1 | inactive: 94% |
| CCc1cccc(N2C(=O)N(CC(=O)NCc3cccc(OC)c3OC)c3ccccc3S2(=O)=O)c1 | inactive: 72% |
| CCCN1C(=O)C(Cc2nc3ccccc3c(=O)n2-c2ccccc2)c2cc(C)ccc21 (stereo not drawn) | inactive: 83% |
| Cc1ccc(C)c(CN2C(=O)c3ccccc3S(=O)(=O)c3ccc(C(=O)N4CCN(c5ccccn5)CC4)cc32)c1 | inactive: 80% |
| COC(=O)c1ccc(OCC2c3cc(OC)c(OC)cc3CCN2C(=O)C(C)C)cc1 (stereo not drawn) | inactive: 118% |
| CCOC(=O)COc1ccc(C)cc1C(=O)c1ccn2nc(-c3ccc(C)cc3)cc2n1 | inactive: 72% |
| O=C(CSc1ncc2c(n1)-c1ccccc1N(Cc1ccccc1)S2(=O)=O)Nc1ccccc1 | active: -6% |

| Structure (SMILES) | survival |
| --- | --- |
| COCCNC(=O)c1ccc(CSc2nc3ccncc3n2Cc2ccccc2)cc1 | inactive: 81% |
| COc1cccc(NC(=O)CSc2nc3ccccc3n2C)c1 | inactive: 71% |
| CCC(=O)N1CCc2cc(S(=O)(=O)CCC(=O)N3CCN(c4cc(C)ccc4C)CC3)ccc21 | inactive: 78% |
| COc1ccc(OC)c(NC(=O)CN(C)S(=O)(=O)c2ccc3[nH]c4c(c3c2)CCCC4)c1 | inactive: 69% |
| CCOc1ccc(NC(=O)c2c(NC(=O)Cc3ccccc3)sc3c2CCC(C)C3)cc1 (stereo not drawn) | inactive: 67% |
| Cc1ccc(Cn2nnc3c(=O)[nH]c(C4CCN(S(=O)(=O)c5ccc(S(=O)(=O)NC6CC6)cc5)CC4)nc32)cc1 | inactive: 117% |
| COc1ccc(Cn2nnc(C(=O)Nc3cc(OC)ccc3OC)c2N)cc1 | inactive: 76% |
| COc1ccc(OC)c(CCNC(=O)c2c(C)nn(-c3ccc(F)cc3)c2-n2cccc2)c1 | inactive: 92% |
| COCCCNC(=O)C1CCN(Cc2nc(-c3ccc(OC)c(OC)c3)oc2C)CC1 | inactive: 86% |
| Cc1ccc(NC(=O)Cn2c(=O)n(Cc3ccco3)c(=O)c3ccc(C(=O)NC4CCCC4)cc32)c(C)c1 | inactive: 87% |
| CCOc1ccc(C(=O)NCC(c2ccc3c(c2)OCO3)N2CCN(c3ccccc3F)CC2)cc1 (stereo not drawn) | inactive: 127% |
| CCOc1ccc(NC(=O)c2c(NCc3ccc(C)o3)sc3c2CCC(C)C3)cc1 (stereo not drawn) | inactive: 113% |
| Cc1nnc(N2CCC(C(=O)NC3CCCCC3)CC2)c2nn(-c3ccc(Cl)cc3)c(C)c12 | inactive: 74% |
| CCn1c(=O)cc(SCC(=O)NCCc2cc(OC)ccc2OC)c2ccccc21 | inactive: 67% |
| CN1CC(=Nc2nonc2N)N(C)C1=O | inactive: 103% |
| CCN(C(=O)c1nn(-c2ccc(OC)c(Cl)c2)c(=O)c2c1c1ccccc1n2C)c1cccc(C(F)(F)F)c1 | inactive: 81% |
| O=C(CN1C(=O)COc2ccc(Cl)cc21)Nc1ccc(F)cc1 | inactive: 89% |
| O=C(OCc1cc(=O)n2nc(-c3cccs3)sc2n1)c1ccc(Cl)cc1 | inactive: 69% |
| COc1ccc(-c2nc3ccc(NS(=O)(=O)c4ccc(C)cc4)cc3o2)cc1 | inactive: 48% |
| COC(=O)c1c(SCC(=O)Nc2cc(OC)cc(OC)c2)[nH]c2ccc(C)cc2c1=O | inactive: 152% |
| CCC1=C(c2ccc(C)cc2)S(=O)(=O)N=C1N1CCC(C(=O)Nc2ccccc2F)CC1 | inactive: 79% |
| Cc1ccc(Cn2c(C(=O)NCc3ccccc3Cl)cc3sccc32)cc1 | inactive: 108% |

| Structure (SMILES) | survival |
| --- | --- |
| Cc1nc2sccn2c(=O)c1S(=O)(=O)Nc1ccc(N2CCOCC2)c(Cl)c1 | inactive: 93% |
| Cc1ccc(NC(=O)Cn2ncn3c(cc4ccccc43)c2=O)cc1F | inactive: 93% |
| CC(NC(=O)c1ccccc1)c1n[nH]c(=S)n1C (stereo not drawn) | inactive: 109% |
| Cc1nc2nc(CNC(=O)OC(C)(C)C)nn2c(C)c1CCC(=O)NCc1ccc(F)cc1 | inactive: 91% |
| CCC1CCC(C(=O)NC(C(=O)Nc2cccc(OC)c2)C(C)C)CC1 (stereo not drawn) | inactive: 71% |
| CCOc1ccc(CNCc2c(C(=O)O)c(C)n(Cc3cccc(OC)c3)c2C)cc1OC | inactive: 75% |
| Cc1cccc(NC(=O)CSc2nnc3[nH]c(=O)cc(-c4ccccc4)n23)c1C | inactive: 135% |
| O=C1CCCN1C(=O)CN1CCCCC1 | inactive: 119% |
| Cc1cc(CN2CCN(c3ccccc3F)CC2)cs1 | inactive: 82% |
| COC(=O)c1cc2sc(C)cc2n1Cc1cccc(OC)c1 | active: 0% |
| COc1ccc(CNC(=O)CCCN2C(=O)CSc3c2c(C)nn3-c2ccccc2)cc1 | inactive: 71% |
| CCOC(=O)c1c(C)[nH]c(C)c1S(=O)(=O)N1CCCC(C(=O)NCc2cccc(C)c2)C1 (stereo not drawn) | inactive: 72% |
| Cc1cccn2c(=O)c(C(=O)NCc3ccc(F)cc3)c(O)nc12 | inactive: 87% |
| CCN(CC)CCNC(=O)C1CCN(c2nn3cc(-c4ccc(F)cc4)nc3s2)CC1 | inactive: 71% |
| Cc1ccc2cc(C#N)c(N3CCCN(S(=O)(=O)c4ccccc4)CC3)nc2c1 | inactive: 103% |
| CCOC(=O)c1c(-c2ccc(OC)cc2)oc2ccc(OCc3ccccc3C)cc12 | inactive: 47% |
| CCOc1cc(C(=O)Nc2cc3c(cc2N2CCOCC2)n(C)c(=O)n3C)cc(OCC)c1OCC | inactive: 84% |
| O=c1cc(-c2ccccc2)nc(SCc2nc(-c3ccccc3Cl)no2)[nH]1 | inactive: 73% |
| CN(C(=O)Nc1ccccc1)C1CCS(=O)(=O)C1 (stereo not drawn) | inactive: 102% |
| CNc1ncnc2c1cnn2-c1ccc(C)c(C)c1 | inactive: 87% |
| Cc1ccccc1CNC(=O)CCCn1c(=O)c2cccn2c2cccnc21 | inactive: 113% |
| Cc1cccc(NC(=O)c2ccc(-n3cnc4cccnc43)cc2)c1C | inactive: 84% |

| Structure (SMILES) | survival |
| --- | --- |
| Cc1ccc(N2CC(NC(=O)c3cccs3)CC2=O)cc1C (stereo not drawn) | inactive: 81% |
| CC1CCN(c2nc(N3CCCCC3)nc(N3CCCCC3)n2)CC1 | inactive: 112% |
| Cn1c(C(=O)N2CCc3ccccc32)cc2sccc21 | inactive: 100% |
| COc1cccc(N=Nc2c(O)[nH]c(=O)[nH]c2=O)c1 | inactive: 110% |
| Oc1ccccc1-c1nc(/C=C/c2ccccc2Cl)nn1-c1ccccc1 | active: 2% |
| COc1cc(NC(=O)c2cccc3c2C(=O)N(C2CCCCC2)C3)cc(OC)c1OC | inactive: 52% |
| CCc1ccc(C(=O)c2cn(CC(=O)Nc3ccc4c(c3)OCO4)c3ccc(OC)cc3c2=O)cc1 | inactive: 69% |
| COc1ccc(-c2noc(=O)n2Cc2ccccc2)cc1 | inactive: 128% |
| Cn1c(C(=O)Nc2cccc(C(F)(F)F)c2)cc2c(=O)n3ccccc3nc21 | inactive: 106% |
| COc1ccc(OC)c(CNC(=O)C(C)n2c(C)c3cnn(-c4ccccc4)c(=O)c3c2C)c1 (stereo not drawn) | inactive: 112% |
| CCOc1ccc(NC(=O)C2CCC(CNS(=O)(=O)c3ccc(Br)s3)CC2)cc1 (stereo not drawn) | inactive: 85% |
| CCOc1cc(/C=C(\C#N)C(=O)NCC2CCCO2)ccc1O (stereo not drawn) | inactive: 75% |
| Cc1ccccc1OCc1ccc(-c2nc(C#N)c(NCc3cccnc3)o2)o1 | inactive: 61% |
| CC1=C(c2ccc(C)c(C)c2)S(=O)(=O)N=C1N1CCC(C(=O)N2CCC(C)CC2)CC1 | inactive: 81% |
| Cc1cccc(NC(=O)N2CCC3(CC2)Oc2ccccc2C(=O)N3Cc2ccccc2F)c1C | inactive: 79% |
| O=C(Cc1ccc(F)cc1)Nc1nnc2n1CCS2 | inactive: 64% |
| CCOc1ccc(C(=O)c2oc3ccccc3c2NC(=O)Cc2coc3ccc(CC)cc23)cc1 | inactive: 85% |
| COc1cccc(C(=O)Nc2c(C(=O)N3CCN(c4ccc(F)cc4)CC3)oc3ccccc23)c1 | inactive: 77% |
| CCc1ccc(CNC(=O)c2c(C)oc3ncnc(N4CCOCC4)c23)cc1 | inactive: 133% |
| COc1cc2ccccc2cc1C(=O)Nc1ccc2oc(-c3ccc(F)cc3Cl)nc2c1 | inactive: 69% |
| CCc1cccc(-n2c(=O)c3cccnc3n2CC(=O)Nc2ccc(F)c(C)c2)c1 | inactive: 74% |
| CC(C)c1ccc(Nc2cc(C(=O)NC3CCCCC3)c3ccccc3n2)cc1 | inactive: 73% |
